# The list shows a part of the results.
# B1: PFL (Pseudomonas fluorescens) (protein)
# chain: MSKYAVANQWGGSSAPWHPGGTWVLGARDNQNVVAIEIKSGDGGKSFTGTMTYAGEGPIGFKAQRTGQNQYNVENQWGGNDAPWHPGGKWVIGGRDNQNVIALSVTSSDGGKNLSGTNTYANEGPIGFRGQIE
# How the values were obtained:
# Assay in all cases: glycan array binding signal (z-score within array); higher = stronger binding
# Conditions in all cases: glycan notation: IUPAC condensed, linker removed
# Gal(a1-3)Gal(b1-4)GlcNAc = molecular target: Gal(a1-3)Gal(b1-4)GlcNAc
# Summary of the method: (§1)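 The Consortium for Functional Glycomics database supplied 3228 glycan arrays, of which those lacking an available protein sequence were dropped. The binding signal, a within-array Z-score, was averaged across arrays of the same protein sequence and across linkers. Negative scores can be read as non-binding.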
# [1] = molecular target: Gal(a1-3)Gal(b1-4)GlcNAc(b1-2)Man
# Summary of the method: as §1
# [2] = molecular target: Gal(a1-3)Gal(b1-4)GlcNAc(b1-2)Man(a1-3)[Gal(a1-3)Gal(b1-4)GlcNAc(b1-2)Man(a1-6)]Man(b1-4)GlcNAc(b1-4)GlcNAc
# Summary of the method: as §1
# [3] = molecular target: Gal(a1-3)Gal(b1-4)GlcNAc(b1-3)GalNAc
# Summary of the method: as §1
# [4] = molecular target: Gal(a1-3)Gal(b1-4)GlcNAc(b1-6)GalNAc
# Summary of the method: as §1
# [5] = molecular target: Gal(a1-3)Gal(b1-4)[Fuc(a1-3)]GlcNAc
# Summary of the method: as §1
# [6] = molecular target: Gal(a1-3)Gal(b1-4)[Fuc(a1-3)]GlcNAc(b1-2)Man(a1-3)[Gal(a1-3)Gal(b1-4)[Fuc(a1-3)]GlcNAc(b1-2)Man(a1-6)]Man(b1-4)GlcNAc(b1-4)GlcNAc
# Summary of the method: as §1
# Gal(a1-3)GalNAc = molecular target: Gal(a1-3)GalNAc
# Summary of the method: as §1
# [7] = molecular target: Gal(a1-3)[Gal(a1-4)]Gal(b1-4)GlcNAc
# Summary of the method: as §1
# [8] = molecular target: Gal(a1-4)Gal(b1-3)GlcNAc(b1-2)Man(a1-3)[Gal(a1-4)Gal(b1-3)GlcNAc(b1-2)Man(a1-6)]Man(b1-4)GlcNAc(b1-4)GlcNAc
# Summary of the method: as §1
# Gal(a1-4)Gal(b1-4)Glc = molecular target: Gal(a1-4)Gal(b1-4)Glc
# Summary of the method: as §1
# Gal(a1-4)Gal(b1-4)GlcNAc = molecular target: Gal(a1-4)Gal(b1-4)GlcNAc
# Summary of the method: as §1
# [9] = molecular target: Gal(a1-4)Gal(b1-4)GlcNAc(b1-2)Man(a1-3)[Gal(a1-4)Gal(b1-4)GlcNAc(b1-2)Man(a1-6)]Man(b1-4)GlcNAc(b1-4)GlcNAc
# Summary of the method: as §1
# [10] = molecular target: Gal(a1-4)Gal(b1-4)GlcNAc(b1-3)Gal(b1-4)Glc
# Summary of the method: as §1
# Gal(a1-4)GlcNAc = molecular target: Gal(a1-4)GlcNAc
# Summary of the method: as §1
# Gal(a1-6)Glc = molecular target: Gal(a1-6)Glc
# Summary of the method: as §1
# Gal(b1-2)Gal = molecular target: Gal(b1-2)Gal
# Summary of the method: as §1
# Gal(b1-3)Gal = molecular target: Gal(b1-3)Gal
# Summary of the method: as §1
# Gal(b1-3)Gal(b1-4)GlcNAc = molecular target: Gal(b1-3)Gal(b1-4)GlcNAc
# Summary of the method: as §1
# Gal(b1-3)GalNAc = molecular target: Gal(b1-3)GalNAc
# Summary of the method: as §1
# [11] = molecular target: Gal(b1-3)GalNAc(a1-3)[Fuc(a1-2)]Gal(b1-4)Glc
# Summary of the method: as §1
# [12] = molecular target: Gal(b1-3)GalNAc(a1-3)[Fuc(a1-2)]Gal(b1-4)GlcNAc
# Summary of the method: as §1
# Gal(b1-3)GalNAc(b1-3)Gal = molecular target: Gal(b1-3)GalNAc(b1-3)Gal
# Summary of the method: as §1
# [13] = molecular target: Gal(b1-3)GalNAc(b1-3)Gal(a1-4)Gal(b1-4)Glc
# Summary of the method: as §1
# [14] = molecular target: Gal(b1-3)GalNAc(b1-4)Gal(b1-4)Glc
# Summary of the method: as §1
# [15] = molecular target: Gal(b1-3)GalNAc(b1-4)[Neu5Ac(a2-3)]Gal(b1-4)Glc
# Summary of the method: as §1
# Gal(b1-3)GlcNAc = molecular target: Gal(b1-3)GlcNAc
# Summary of the method: as §1
# [16] = molecular target: Gal(b1-3)GlcNAc(a1-3)Gal(b1-4)GlcNAc
# Summary of the method: as §1
# [17] = molecular target: Gal(b1-3)GlcNAc(a1-6)Gal(b1-4)GlcNAc
# Summary of the method: as §1
# Gal(b1-3)GlcNAc(b1-2)Man = molecular target: Gal(b1-3)GlcNAc(b1-2)Man
# Summary of the method: as §1
# [18] = molecular target: Gal(b1-3)GlcNAc(b1-2)Man(a1-3)[Gal(b1-3)GlcNAc(b1-2)Man(a1-6)]Man(b1-4)GlcNAc(b1-4)GlcNAc
# Summary of the method: as §1
# [19] = molecular target: Gal(b1-3)GlcNAc(b1-2)Man(a1-3)[Gal(b1-3)GlcNAc(b1-2)Man(a1-6)]Man(b1-4)GlcNAc(b1-4)[Fuc(a1-6)]GlcNAc
# Summary of the method: as §1
# [20] = molecular target: Gal(b1-3)GlcNAc(b1-2)Man(a1-3)[GlcNAc(b1-4)][Gal(b1-3)GlcNAc(b1-2)Man(a1-6)]Man(b1-4)GlcNAc(b1-4)GlcNAc
# Summary of the method: as §1
# [21] = molecular target: Gal(b1-3)GlcNAc(b1-2)[Gal(b1-3)GlcNAc(b1-6)]Man(a1-6)[Gal(b1-3)GlcNAc(b1-2)Man(a1-3)]Man(b1-4)GlcNAc(b1-4)GlcNAc
# Summary of the method: as §1
# [22] = molecular target: Gal(b1-3)GlcNAc(b1-3)Gal(b1-3)GlcNAc
# Summary of the method: as §1
# [23] = molecular target: Gal(b1-3)GlcNAc(b1-3)Gal(b1-4)Glc
# Summary of the method: as §1
# [24] = molecular target: Gal(b1-3)GlcNAc(b1-3)Gal(b1-4)GlcNAc
# Summary of the method: as §1
# [25] = molecular target: Gal(b1-3)GlcNAc(b1-3)Gal(b1-4)GlcNAc(b1-2)Man(a1-3)[Gal(b1-3)GlcNAc(b1-3)Gal(b1-4)GlcNAc(b1-2)Man(a1-6)]Man(b1-4)GlcNAc(b1-4)GlcNAc
# Summary of the method: as §1
# [26] = molecular target: Gal(b1-3)GlcNAc(b1-3)Gal(b1-4)GlcNAc(b1-2)[Gal(b1-3)GlcNAc(b1-3)Gal(b1-4)GlcNAc(b1-6)]Man(a1-6)[Gal(b1-3)GlcNAc(b1-3)Gal(b1-4)GlcNAc(b1-2)Man(a1-3)]Man(b1-4)GlcNAc(b1-4)[Fuc(a1-6)]GlcNAc
# Summary of the method: as §1
# [27] = molecular target: Gal(b1-3)GlcNAc(b1-3)Gal(b1-4)GlcNAc(b1-3)Gal(b1-4)GlcNAc(b1-2)[Gal(b1-3)GlcNAc(b1-3)Gal(b1-4)GlcNAc(b1-3)Gal(b1-4)GlcNAc(b1-6)]Man(a1-6)[Gal(b1-3)GlcNAc(b1-3)Gal(b1-4)GlcNAc(b1-3)Gal(b1-4)GlcNAc(b1-2)Man(a1-3)]Man(b1-4)GlcNAc(b1-4)[Fuc(a1-6)]GlcNAc
# Summary of the method: as §1
# [28] = molecular target: Gal(b1-3)GlcNAc(b1-3)Gal(b1-4)GlcNAc(b1-6)[Gal(b1-3)GlcNAc(b1-3)]Gal(b1-4)Glc
# Summary of the method: as §1
# [29] = molecular target: Gal(b1-3)GlcNAc(b1-3)Gal(b1-4)[Fuc(a1-3)]GlcNAc
# Summary of the method: as §1
# [30] = molecular target: Gal(b1-3)GlcNAc(b1-3)Gal(b1-4)[Fuc(a1-3)]GlcNAc(b1-6)[Gal(b1-3)GlcNAc(b1-3)]Gal(b1-4)Glc
# Summary of the method: as §1
# [31] = molecular target: Gal(b1-3)GlcNAc(b1-3)GalNAc
# Summary of the method: as §1
# [32] = molecular target: Gal(b1-3)GlcNAc(b1-6)Gal(b1-4)GlcNAc
# Summary of the method: as §1
binder,measurement,setting,value
B1,glycan array binding signal (z-score),Gal(a1-3)Gal(b1-4)GlcNAc,-0.115
same,glycan array binding signal (z-score),[1],-0.116
same,glycan array binding signal (z-score),[2],-0.098
same,glycan array binding signal (z-score),[3],-0.115
same,glycan array binding signal (z-score),[4],-0.118
same,glycan array binding signal (z-score),[5],-0.115
same,glycan array binding signal (z-score),[6],-0.079
same,glycan array binding signal (z-score),Gal(a1-3)GalNAc,-0.117
same,glycan array binding signal (z-score),[7],-0.105
same,glycan array binding signal (z-score),[8],0.084
same,glycan array binding signal (z-score),Gal(a1-4)Gal(b1-4)Glc,-0.108
same,glycan array binding signal (z-score),Gal(a1-4)Gal(b1-4)GlcNAc,-0.109
same,glycan array binding signal (z-score),[9],-0.103
same,glycan array binding signal (z-score),[10],-0.113
same,glycan array binding signal (z-score),Gal(a1-4)GlcNAc,-0.111
same,glycan array binding signal (z-score),Gal(a1-6)Glc,-0.116
same,glycan array binding signal (z-score),Gal(b1-2)Gal,-0.113
same,glycan array binding signal (z-score),Gal(b1-3)Gal,-0.118
same,glycan array binding signal (z-score),Gal(b1-3)Gal(b1-4)GlcNAc,-0.117
same,glycan array binding signal (z-score),Gal(b1-3)GalNAc,-0.114
same,glycan array binding signal (z-score),[11],-0.113
same,glycan array binding signal (z-score),[12],-0.113
same,glycan array binding signal (z-score),Gal(b1-3)GalNAc(b1-3)Gal,-0.12
same,glycan array binding signal (z-score),[13],-0.116
same,glycan array binding signal (z-score),[14],-0.115
same,glycan array binding signal (z-score),[15],-0.115
same,glycan array binding signal (z-score),Gal(b1-3)GlcNAc,-0.115
same,glycan array binding signal (z-score),[16],-0.118
same,glycan array binding signal (z-score),[17],-0.12
same,glycan array binding signal (z-score),Gal(b1-3)GlcNAc(b1-2)Man,-0.112
same,glycan array binding signal (z-score),[18],0.026
same,glycan array binding signal (z-score),[19],0.052
same,glycan array binding signal (z-score),[20],0.248
same,glycan array binding signal (z-score),[21],0.071
same,glycan array binding signal (z-score),[22],-0.11
same,glycan array binding signal (z-score),[23],-0.119
same,glycan array binding signal (z-score),[24],-0.115
same,glycan array binding signal (z-score),[25],0.01
same,glycan array binding signal (z-score),[26],0.261
same,glycan array binding signal (z-score),[27],0.086
same,glycan array binding signal (z-score),[28],-0.116
same,glycan array binding signal (z-score),[29],-0.115
same,glycan array binding signal (z-score),[30],-0.11
same,glycan array binding signal (z-score),[31],-0.113
same,glycan array binding signal (z-score),[32],-0.114
